Screen size: about 310,000 compounds; about 14,000 (4.5%) showed an effect of 50% or more. The effect is printed as a negative number. Some of the results follow.
biological target: human ether-à-go-go-related gene (hERG) potassium channel (human, UniProt Q12809); assay: primary screen, population patch clamp on CHO cells stably expressing hERG
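Note: peak tail current of the secondary pulse compared with the same well before compound.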

human ether-à-go-go-related gene (hERG) potassium channel, sequence (Q12809 whole entry, looked up): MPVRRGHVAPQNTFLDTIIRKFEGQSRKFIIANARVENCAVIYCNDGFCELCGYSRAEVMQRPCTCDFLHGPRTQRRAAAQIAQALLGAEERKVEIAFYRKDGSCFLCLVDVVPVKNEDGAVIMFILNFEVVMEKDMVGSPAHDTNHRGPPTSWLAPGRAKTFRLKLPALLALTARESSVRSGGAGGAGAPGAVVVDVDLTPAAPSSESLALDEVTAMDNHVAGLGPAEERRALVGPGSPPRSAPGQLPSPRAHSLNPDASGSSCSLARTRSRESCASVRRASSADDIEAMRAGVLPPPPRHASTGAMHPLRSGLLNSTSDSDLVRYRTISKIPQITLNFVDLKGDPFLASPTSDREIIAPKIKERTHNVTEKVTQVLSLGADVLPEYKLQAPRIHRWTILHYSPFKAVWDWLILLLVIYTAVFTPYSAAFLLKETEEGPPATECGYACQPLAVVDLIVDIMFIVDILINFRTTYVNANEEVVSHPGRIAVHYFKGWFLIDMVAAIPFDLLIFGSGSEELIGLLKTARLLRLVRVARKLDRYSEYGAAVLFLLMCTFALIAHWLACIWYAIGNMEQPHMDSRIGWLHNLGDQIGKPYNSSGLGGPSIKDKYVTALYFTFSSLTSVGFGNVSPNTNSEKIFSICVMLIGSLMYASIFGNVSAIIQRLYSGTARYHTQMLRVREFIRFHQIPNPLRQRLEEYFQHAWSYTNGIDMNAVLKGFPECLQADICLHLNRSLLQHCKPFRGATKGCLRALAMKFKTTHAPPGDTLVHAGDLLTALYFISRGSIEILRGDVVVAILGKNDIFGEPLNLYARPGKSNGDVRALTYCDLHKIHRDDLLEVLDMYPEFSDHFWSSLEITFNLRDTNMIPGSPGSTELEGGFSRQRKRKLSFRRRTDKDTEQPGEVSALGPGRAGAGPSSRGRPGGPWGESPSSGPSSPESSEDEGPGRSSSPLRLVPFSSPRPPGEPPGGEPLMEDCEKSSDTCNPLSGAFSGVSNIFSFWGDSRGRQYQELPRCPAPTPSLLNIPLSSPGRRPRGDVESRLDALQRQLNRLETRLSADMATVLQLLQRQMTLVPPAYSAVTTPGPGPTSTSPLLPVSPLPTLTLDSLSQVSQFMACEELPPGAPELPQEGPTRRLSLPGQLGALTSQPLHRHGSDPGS

SMILES	hERG current change (%, negative = inhibition) at 10uM [%]
O=C(Nc1ccc2cccnc2c1)c1ccc(Br)cc1	17.4
COc1ccccc1CNC(=O)CCNS(=O)(=O)c1ccc2c(c1)oc(=O)n2C	13.5
Cc1cc(C)cc(N(CC(=O)NCC2CCCO2)C(=O)CN2C(=O)COc3ccccc32)c1 (stereo not shown)	-34.8
Cc1cccc(N2C(=O)NC(=O)/C(=C\C=C\c3ccco3)C2=O)c1	-7
COc1ccccc1Oc1ccc(NC(=O)c2ccccc2C)cc1	19.6
Cc1nn(-c2ccccc2)c(Cl)c1C(=O)NCCCCNC(=O)c1c(C)nn(-c2ccccc2)c1Cl	-2.76
COc1cc(C(=O)NC(C)Cc2cccs2)cc(OC)c1OC (stereo not shown)	-26.7
COc1cc(C2c3sc(=O)[nH]c3SC3C(=O)N(c4ccc(Br)cc4)C(=O)C32)ccc1O (stereo not shown)	-3.19
CCOc1ccc(C(=O)N[C@H](C(=O)O)C(C)C)cc1	7.22
COc1cc(O)oc1C=Nc1ccc(Cl)cc1Cl	-4.38
O=C(O)C1CCN(c2nc(-c3ccccc3)nc3c2oc2ccccc23)CC1	-9.06
COc1ccc(NC(=O)CN(C)CC(=O)Nc2ccc(Cl)cc2[N+](=O)[O-])cc1	-48
Cc1ccc(-c2nc(SCC(=O)N(C)c3c(N)n(Cc4ccccc4)c(=O)[nH]c3=O)n[nH]2)cc1	23.6
CCOc1cccc(C2c3c(oc4ccccc4c3=O)C(=O)N2c2ccccn2)c1 (stereo not shown)	1.85
Cc1ccc(C)c(S(=O)(=O)N2CCN(C(=O)c3ccccn3)CC2)c1	-0.682
CN(C)CCCN(C(=O)C1COc2ccccc2O1)c1nc2cc3c(cc2s1)OCO3.Cl (stereo not shown)	-64.4
CCn1nc(C)cc1C(=O)N1CCCC(N2CCN(c3ccccc3OC)CC2)C1 (stereo not shown)	-5.6
COc1ccc(CN(CC2CCCO2)C(=O)c2cc3ccccc3oc2=O)cc1 (stereo not shown)	7.96
Cc1nnc(SCc2ccc(F)cc2)s1	3.71
O=C(Cn1cc2c(n1)CCCCC2)Nc1c(F)c(F)cc(F)c1F	9.2
Cc1oc(-c2ccccc2)cc1C(=O)Nc1cccc(C(=O)O)c1	3.78
COc1ccc(C2CC(c3ccccc3OC(C)=O)=NN2C(=O)/C=C/c2ccccc2)cc1 (stereo not shown)	-1.23

SMILES	hERG current change (%, negative = inhibition) at 10uM [%]
CC1CN(S(=O)(=O)c2ccc(C(=O)OCc3ccc(C#N)cc3)cc2)CC(C)O1 (stereo not shown)	-3.58
CSc1ccc(C2N=C(c3ccccc3)NO2)cc1 (stereo not shown)	13.9
Cc1cc(C)c(C(=O)C(C)OC(=O)c2ccc(Cl)nc2)cc1C (stereo not shown)	12.2
Cc1cccc(C)c1NC(=O)CC(NCc1ccco1)C(=O)O (stereo not shown)	20.5
Cc1ccccc1-n1cnc2cc(NCc3cccs3)ccc21	-31
COc1cc([N+](=O)[O-])cc(/C=N/NC(=O)Cn2nc(C)cc2C)c1O	17.5
CC(=O)N1CCN(Cc2nc3cc(NC(=O)c4ccccc4Cl)ccc3n2C)CC1	-20.8
CCCCC(=O)Nc1ccc(C(=O)c2ccccc2)cc1	-6.24
Cc1nn(-c2ccccc2)c(Cl)c1/C=N/NC(=O)c1nn(C)cc1[N+](=O)[O-]	1.53
O=C(CCCn1c(=O)[nH]c2cc(Cl)ccc2c1=O)NCCCN1CCN(c2ccc(F)cc2)CC1	-64.9
CN(C)C(=O)Cn1c(=O)n(C)c2ccccc21	6.59
CN1CCN(CCNC(=O)Nc2ccccc2C(F)(F)F)CC1	3.26
CCOc1ccc(CCNS(=O)(=O)c2ccc3c(c2)NC(=O)CC(=O)N3)cc1OCC	12.4
CCOC(=O)C1(CCOc2ccccc2)CCN(Cc2cc(OC)c(O)cc2Cl)CC1	-69.2
COc1ccc(NC(=S)N/N=C/c2ccc(F)c(F)c2)cc1	7.65
CCOc1ccc(CN2CCNC(=O)C2CC(=O)N(C)C2CCCCC2)cc1 (stereo not shown)	6.66
C[C@@H](CN1CCC(Cc2ccccc2)CC1)[C@@H](O)c1ccc(O)cc1.Cl	-71.3
CN(c1ccccc1)S(=O)(=O)c1cccc(NC(=O)Cn2cnc3c2c(=O)n(C)c(=O)n3C)c1	-52.6
Cc1ccc(N(C(=O)Cn2nnc(-c3ccc(F)cc3)n2)C(C(=O)NC(C)(C)C)c2ccncc2)cc1 (stereo not shown)	-42.1
CSc1ccccc1NC(=O)CSCc1ccc(Br)cc1	5.69
Cc1cccn2c(=O)c3cc(C(=O)NC4CCCCC4)c(=N)n(CCN4CCOCC4)c3nc12	-87

— article PMC4336329 (PLoS ONE, 2015)
